In PubChem BioAssay AID651820 (National Center for Advancing Translational Sciences (NCATS), 2012):
Hit rate of the full screen: of about 340,000 compounds, about 12,000 (3.5%) were called active. Inconclusive results, whose numbers are uncertain, are shown with a selection of clear calls. Calls come from the whole dose curve; as a rule, active = well fitted inhibition curve with a large enough effect; inconclusive = small, poorly fitted or top-dose-only effect, or another doubt; inactive = no such curve, though single readings can be large or run the other way. Potencies of inconclusive entries are left out as doubtful fits.

Assay: qHTS Assay for Inhibitors of Hepatitis C Virus (HCV)
Conditions: Huh7.5.1 HCVcc-Cre (HCVcc is cell-culture hepatitis C virus) infection, luciferase reporter, 44 h; activity change, negative = inhibition: at 41.8 µM (top of the series) unless noted
Method in brief: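 Compounds are dispensed onto cells plated 4 h earlier at 1,000 per well, with HCVcc-Cre virus (about 0.5 moi) added next. Following 44 h of culture, luminescent signal is measured for 15 sec after 15 min with substrate at room temperature.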
% is set by controls: 0 for no effect and ±100 for the full control effect; potency is the fitted concentration of half-maximal effect; tags give direction and shape of the fitted curve.

Row | SMILES | activity change, negative = inhibition | Potency
1 | O=c1c2ccccc2n(CC(O)CN2CCCCC2)c2ccccc12 (stereo not given) | inconclusive: -65.9% [inhibitor] | 
2 | CCc1cc(=O)oc2c(C)c(OC(C)C(=O)N3CCC[C@@H]3C(=O)O)ccc12 (stereo not given in full) | inactive: -2.72% | 
3 | O=[N+]([O-])c1cccc(-c2nnc(SCc3cccnc3)o2)c1 | inactive: -2.79% | 
4 | C/C(=C\c1cccc(Cl)c1Cl)C(=O)c1c(C)cc(C)[nH]c1=O | inactive: -9.02% | 
5 | COc1ccc(OCC(=O)c2c[nH]c3ccccc23)cc1 | inactive: 9.69% | 
6 | O=C(c1cnccn1)N1CCc2ccccc2C1 | inactive: 13.4% | 
7 | CN(C(=S)NC1CCCCC1)C1(c2ccccc2Cl)CCCCC1=O (stereo not given) |  | inconclusive [inhibitor, single point]
8 | CC(=O)Nc1cnn(Cc2ccc(Br)cc2)c1 | inactive: 28.1% | 
9 | COc1cc(C(=O)N(Cc2ccc(F)cc2)C2CCS(=O)(=O)C2)cc(OC)c1OC (stereo not given) | inactive: 9.86% | 
10 | Cc1c(C(=O)N2CCN(C(=O)c3ccco3)CC2)oc2c(Cl)cccc12 |  | inconclusive [inhibitor, full curve, poor fit]
11 | CCOc1ccc(CCN2C(=S)N([C@@H](CC(C)C)CN3CCCC3CN3C(=S)NC[C@@H]3Cc3ccc(O)cc3)C[C@@H]2CC(C)C)cc1 (stereo not given in full) |  | inconclusive [inhibitor, partial curve]
12 | O=C(Nc1ccc2c(c1)OCO2)N1CCN(c2ncc(C(F)(F)F)cc2Cl)CC1 |  | inconclusive [inhibitor, partial curve]
13 | COc1ccccc1CNC(=O)CCCn1nc(C)c2c(C)n(-c3ccccc3)nc2c1=O | inactive: -26.3% | 
14 | Cc1cccn2c(=O)c3cc(C(N)=S)c(=N)n(CCCOC(C)C)c3nc12 |  | active: 11.2 µM
15 | O=C(CC1Sc2ccccc2NC1=O)c1ccc(Br)cc1 (stereo not given) | inactive: -1.58% | 
16 | CC(=O)/C=C1/SC(CC(=O)O)C(=O)N1c1ccccc1 (stereo not given) |  | inconclusive [inhibitor, single point]
17 | Cc1c(S(=O)(=O)Nc2cc(Cl)ccc2Cl)c(=O)n(C)c(=O)n1C |  | inconclusive [inhibitor, single point]
18 | CCOC(=O)C(=O)Nc1ccc(OCc2ccccc2)cc1 | inactive: 23.6% | 
19 | COc1ccccc1CNC(=O)COc1ccc(C)nc1[N+](=O)[O-] |  | inconclusive [inhibitor, single point]
20 | CCC(=O)c1ccc(N2CCN(C(=O)c3ccc(F)cc3)CC2)c(F)c1 |  | inconclusive [inhibitor, single point]
21 | N#C/C(=C/c1cn(-c2ccccc2)nc1-c1cccc(OCc2ccc(F)cc2)c1)C(=O)NCCCn1ccnc1 |  | active: 5.62 µM
22 | N/C(=N\OC(=O)COc1cc(Cl)c(Cl)cc1Cl)c1ccncc1 | inactive: -5.52% | 
23 | O=C(Nc1ccc(F)cc1)C(c1ccccc1)N1CCN(S(=O)(=O)c2ccccc2)CC1 (stereo not given) |  | inconclusive [inhibitor, partial curve, poor fit]
24 | CC1Cc2ccccc2N1Cc1cc(=O)c(OCC(=O)NCCc2ccccc2)co1 (stereo not given) |  | inconclusive [inhibitor, partial curve, poor fit]
25 | CCCCC(=O)Nc1nc2ccc3nc(C)sc3c2s1 |  | active: 7.94 µM

Row | SMILES | activity change, negative = inhibition | Potency
26 | OCc1cn(-c2ccccc2)nc1-c1ccc(Br)cc1 | inactive: 2.11% | 
27 | Nc1nc(N)c2cc(Sc3ccc4ccccc4c3)ccc2n1 |  | active: 11.2 µM
28 | COc1ccc2oc(=Nc3ccc(C(=O)O)cc3)c(C(=O)NCc3ccco3)cc2c1 | inactive: 14.3% | 
29 | O=C(CBr)N1CCc2ccccc2C(c2ccccc2)C1 (stereo not given) | inactive: 13.3% | 
30 | CN(Cc1ccc(Cl)c(Cl)c1)C(=O)c1cccc(S(=O)(=O)N2CCN(Cc3ccccc3)CC2)c1 |  | active: 10 µM
31 | CSc1ccccc1NC(=S)Nc1ccc(S(N)(=O)=O)cc1 | inactive: 4.9% | 
32 | CCOc1ccc(N2C(=O)/C(=C/c3cc(OC)c(OC)c(OC)c3)N(CC(=O)OC)C2=S)cc1 |  | inconclusive [inhibitor, full curve]
33 | Clc1ccc(-c2c(C3=NCCCN3)nnn2-c2ccc(Cl)cc2)cc1 |  | inconclusive [inhibitor, single point]
34 | Cc1ccc2nc(SCC(=O)Nc3cccc(F)c3)nc(=O)n2c1 |  | inconclusive [inhibitor, full curve]
35 | CCn1cc(/C=N/O)c(C)n1 | inactive: 2.16% | 
36 | COc1ccccc1N(C)S(=O)(=O)c1ccc(C(=O)Nc2ccc(C)cc2C)cc1 |  | inconclusive [inhibitor, full curve]
37 | Cc1cccc(NC(=O)c2nc[nH]c2C(=O)Nc2ccccc2[N+](=O)[O-])c1 | inactive: 8.63% | 
38 | OCC[C@H]1C[C@@H](O)[C@H](O)[C@@]2(OCCc3ccccc32)O1 |  | inconclusive [inhibitor, single point]
39 | COc1ccc(CCNC(=O)C2CCCN(S(=O)(=O)c3ccc(F)cc3)C2)cc1 (stereo not given) |  | inconclusive [inhibitor, single point]
40 | Cc1oc(-c2ccccc2F)nc1CS(=O)CC(=O)NC1CCCCC1 (stereo not given) | inactive: 3.91% | 
41 | Cc1ccc(C(=O)Nc2cccc(C(F)(F)F)c2)cc1Nc1cncnc1 |  | inconclusive [inhibitor, full curve, poor fit]
42 | COc1ccc(CCNC(=O)C(=O)NCC2CCCN2S(=O)(=O)c2cc(C)ccc2C)cc1 (stereo not given) |  | inconclusive [inhibitor, single point]
43 | CCOC(=O)c1cc(-c2ccccc2)sc1NC(=O)C(C)Sc1nnnn1C (stereo not given) |  | inconclusive [inhibitor, partial curve]
44 | Cc1[nH]c2ccccc2c1C(=O)COC(=O)c1c(-c2ccccc2Cl)noc1C |  | inconclusive [inhibitor, single point]
45 | CCc1ccc(OCC(=O)N/N=C/c2cc([N+](=O)[O-])ccc2N2CCOCC2)cc1 |  | inconclusive [inhibitor, partial curve]
46 | CC(C)c1ccccc1NC(=O)COc1ccc2c(=O)c(Oc3ccc4ccccc4c3)coc2c1 |  | inconclusive [inhibitor, partial curve, poor fit]
47 | COc1cc(CN(C(=O)c2ccco2)C2CCS(=O)(=O)C2)cc(OC)c1OC (stereo not given) | inactive: 11.7% | 
48 | O=C(CN1CCN(c2cccc(Cl)c2)CC1)Nc1ccc([N+](=O)[O-])cc1C(=O)Nc1ccccc1F |  | inconclusive [inhibitor, full curve, poor fit]
49 | CN1C(=O)CC(N2CCN(CCN=CC3=C(O)CC(C)(C)CC3=O)CC2)C1=O (stereo not given) | inactive: 17.8% | 
50 | Cc1cc(N)n2ncc(-c3cccc(Br)c3)c2n1 |  | inconclusive [inhibitor, partial curve]

Row | SMILES | activity change, negative = inhibition | Potency
51 | CC(NC(=O)CN1CCN(c2ccc(Cl)cc2)CC1)c1ccccc1 (stereo not given) |  | inconclusive [inhibitor, partial curve]
52 | Cc1nc(-c2ccccn2)sc1C(=O)Nc1ccc(Cl)c(Cl)c1 |  | inconclusive [inhibitor, full curve, poor fit]
53 | CCOC(=O)C1=C(C)Nc2nc(SCC(=O)OC)nn2C1c1cc(F)cc(F)c1 (stereo not given) |  | inactive
54 | Cc1ccc(Nc2c(-c3ccccn3)nc3cccc(C)n23)cc1 |  | active: 6.31 µM
55 | O=C(CSc1nnc2ccccn12)Nc1ccc2c(c1)OCCO2 | inactive: 5.75% | 
56 | Cc1nc(N/N=C/c2cccc(F)c2)cc(N2CCOCC2)n1 |  | inconclusive [inhibitor, partial curve]
57 | O=C(CSc1nc(=O)n2ccccc2n1)N1CCN(c2ccccc2)CC1 | inactive: 4.75% | 
58 | C[C@]12CCC(=O)CC1=CCC1C3CC=C(C#N)[C@@]3(C)CC[C@@]12O (stereo not given in full) | inactive: 5.28% | 
59 | COc1cc2c(cc1OC)CN(C(=O)CN1CCN(S(=O)(=O)c3ccccc3Br)CC1)CC2 |  | inconclusive [inhibitor, single point]
60 | CCC1CCC2(CC1)NC(=O)N(CC(=O)Nc1cccc(S(=O)(=O)N(C)c3ccccc3)c1)C2=O (stereo not given) |  | active: 8.91 µM
61 | NC(=S)N/N=C/c1c[nH]c2ccc(OCc3ccccc3)cc12 |  | active: 12.6 µM
62 | O=C(CCc1ccccc1)N/N=C/c1cc(Br)ccc1O |  | active: 11.2 µM
63 | COCC(C)NC(=O)c1cc(-c2cccc(OC)c2)on1 (stereo not given) |  | inconclusive [inhibitor, single point]
64 | COc1ccc(CCNC(=O)c2cccc(S(=O)(=O)N3CCCC3)c2)cc1 |  | inconclusive [inhibitor, single point]
65 | COc1ccc(N(C(=O)c2cccnc2)S(=O)(=O)c2ccc(Cl)cc2)cc1 |  | inconclusive [inhibitor, single point]
66 | COc1ccc(-c2csc(NCc3ccco3)n2)cc1 |  | inconclusive [inhibitor, single point]
67 | Cc1ccc(Nc2cc(C)nc3c(C)ccc([N+](=O)[O-])c23)cc1 | inconclusive: -67.5% [inhibitor] | 
68 | COCC(C)NC(=O)c1cc2cc(OC)ccc2[nH]1 (stereo not given) | inactive: -18.4% | 
69 | Cc1ccc2cccc(S(=O)(=O)n3nc(C)cc3C)c2n1 |  | inconclusive [inhibitor, single point]
70 | O=S(=O)(Nc1ccc2c(c1)OCO2)c1cccc(Br)c1 | inactive: 7.95% | 
71 | CN1CCN(NC(=O)c2cc(-c3ccc(Br)s3)nc3ccccc23)CC1 |  | active: 10 µM
72 | COCc1ccc(C(=O)Nc2ccccc2C(=O)NCc2cccnc2)cc1 | inactive: 2.65% | 
73 | COc1cc(S(=O)(=O)n2ccc(C)n2)c(OC)cc1Cl |  | inconclusive [inhibitor, single point]
74 | CCC(=O)N(Cc1ccco1)c1nc(-c2ccc(OC)cc2)cs1 |  | inconclusive [inhibitor, single point]
75 | Cc1ccc2nc(-c3cccnc3)c(Nc3ccccc3C)n2c1 | inactive: -9.89% | 
